Assay [1] concerns the target T1, glucose transporter 4 (GLUT4), endogenous in C2C12 myoblasts (mouse (endogenous in C2C12)) (UniProt P14142).
T1 sequence: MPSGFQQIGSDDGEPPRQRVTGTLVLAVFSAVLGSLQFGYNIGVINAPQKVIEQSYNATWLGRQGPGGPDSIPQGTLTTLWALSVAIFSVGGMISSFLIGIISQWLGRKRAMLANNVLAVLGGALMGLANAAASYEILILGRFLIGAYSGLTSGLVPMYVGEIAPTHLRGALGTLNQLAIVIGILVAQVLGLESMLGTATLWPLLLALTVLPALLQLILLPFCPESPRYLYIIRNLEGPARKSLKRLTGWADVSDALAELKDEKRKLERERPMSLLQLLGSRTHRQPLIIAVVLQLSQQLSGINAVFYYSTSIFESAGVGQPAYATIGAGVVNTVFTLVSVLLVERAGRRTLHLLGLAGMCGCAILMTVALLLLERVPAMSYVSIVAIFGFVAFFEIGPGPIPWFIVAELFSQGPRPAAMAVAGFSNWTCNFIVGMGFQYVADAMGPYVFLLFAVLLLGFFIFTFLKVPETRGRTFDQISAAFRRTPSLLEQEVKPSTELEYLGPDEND
In words: co-IP; endogenous proteins; control or shCdo-transfected C2C12 cells immunoprecipitated with antibody to GLUT4; blots for GLUT4, Stx4 and Cdo.

Chains of the proteins cited; added tags and fusions are not shown. Lines headed by an entry give the natural chain unless they say otherwise; changes in a name come on top. A line that says so, or that is headed by a name, gives the form on record, which may keep a tag or linker.
UniProt P70452: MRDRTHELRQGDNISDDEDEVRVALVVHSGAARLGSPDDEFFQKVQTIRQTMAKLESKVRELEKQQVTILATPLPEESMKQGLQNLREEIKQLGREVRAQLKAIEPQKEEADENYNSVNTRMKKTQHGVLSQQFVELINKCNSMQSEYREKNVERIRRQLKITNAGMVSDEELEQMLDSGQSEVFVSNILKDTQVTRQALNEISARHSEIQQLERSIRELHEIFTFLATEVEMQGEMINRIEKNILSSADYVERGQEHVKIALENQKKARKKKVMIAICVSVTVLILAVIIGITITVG
GFP-S-tagged Stx4Δ154-194 (linker region deletion) (P70452, form named): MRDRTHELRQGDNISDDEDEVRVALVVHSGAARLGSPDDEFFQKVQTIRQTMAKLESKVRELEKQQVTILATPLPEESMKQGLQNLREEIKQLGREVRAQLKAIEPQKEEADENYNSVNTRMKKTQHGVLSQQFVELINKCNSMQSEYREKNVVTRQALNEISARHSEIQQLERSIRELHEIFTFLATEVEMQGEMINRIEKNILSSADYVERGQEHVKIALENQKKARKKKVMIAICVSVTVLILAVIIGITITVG
GFP-S-tagged Stx4Δ195-262 (t-SNARE region deletion) (P70452, form named): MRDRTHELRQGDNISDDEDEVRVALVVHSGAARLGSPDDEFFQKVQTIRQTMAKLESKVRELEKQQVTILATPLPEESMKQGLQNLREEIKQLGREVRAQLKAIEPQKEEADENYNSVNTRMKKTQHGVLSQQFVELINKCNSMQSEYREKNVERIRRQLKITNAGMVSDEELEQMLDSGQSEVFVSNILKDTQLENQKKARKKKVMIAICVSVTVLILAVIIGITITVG

The target in assay [2] is T2, Cdo, endogenous in C2C12 myoblasts (mouse (endogenous in C2C12)) (UniProt Q32MD9).
T2 sequence: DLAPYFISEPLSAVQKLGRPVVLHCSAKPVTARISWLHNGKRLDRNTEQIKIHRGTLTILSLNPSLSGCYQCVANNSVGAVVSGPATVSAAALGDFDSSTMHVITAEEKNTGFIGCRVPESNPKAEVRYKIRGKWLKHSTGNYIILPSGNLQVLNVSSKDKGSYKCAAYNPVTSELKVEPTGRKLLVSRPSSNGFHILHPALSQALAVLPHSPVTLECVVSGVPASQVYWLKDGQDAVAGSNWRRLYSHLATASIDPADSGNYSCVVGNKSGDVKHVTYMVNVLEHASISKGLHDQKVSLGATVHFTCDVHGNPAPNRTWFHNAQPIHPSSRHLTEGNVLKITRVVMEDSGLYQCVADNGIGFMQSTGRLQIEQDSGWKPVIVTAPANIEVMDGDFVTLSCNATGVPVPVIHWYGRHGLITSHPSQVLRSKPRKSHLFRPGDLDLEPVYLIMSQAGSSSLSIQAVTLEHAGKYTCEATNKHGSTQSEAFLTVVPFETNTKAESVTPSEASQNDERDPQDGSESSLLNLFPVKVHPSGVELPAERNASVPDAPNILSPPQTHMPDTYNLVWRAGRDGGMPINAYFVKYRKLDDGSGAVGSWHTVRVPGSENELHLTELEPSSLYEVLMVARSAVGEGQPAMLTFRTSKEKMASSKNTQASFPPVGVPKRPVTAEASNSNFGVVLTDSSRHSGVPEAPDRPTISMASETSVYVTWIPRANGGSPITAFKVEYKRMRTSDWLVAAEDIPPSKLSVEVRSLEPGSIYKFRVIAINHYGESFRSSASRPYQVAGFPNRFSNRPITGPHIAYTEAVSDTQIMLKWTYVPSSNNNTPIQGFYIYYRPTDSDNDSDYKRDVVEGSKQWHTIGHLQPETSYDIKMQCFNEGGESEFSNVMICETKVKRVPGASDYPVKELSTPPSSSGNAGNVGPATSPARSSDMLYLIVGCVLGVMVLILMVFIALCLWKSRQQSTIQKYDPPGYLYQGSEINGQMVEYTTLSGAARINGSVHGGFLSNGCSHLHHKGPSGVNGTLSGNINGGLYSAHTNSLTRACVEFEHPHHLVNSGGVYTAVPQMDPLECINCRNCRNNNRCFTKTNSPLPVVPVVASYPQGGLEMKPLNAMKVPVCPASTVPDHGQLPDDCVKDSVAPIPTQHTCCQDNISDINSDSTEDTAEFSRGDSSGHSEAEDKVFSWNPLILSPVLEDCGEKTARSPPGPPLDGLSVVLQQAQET
In words: co-IP; endogenous proteins; lysates of differentiating C2C12 myoblasts (D0-D3; control pSuper cells at D2) immunoprecipitated with control IgG or anti-Cdo antibody; blots for Stx4, JLP, Bnip2.

Assay [3] concerns the target myc-tagged Stx4 (Syntaxin 4), full length (aa 1-299) (mouse) (UniProt P70452). In words: co-IP; 293T cells co-transfected with Stx4-myc and Cdo (full length or deletion mutants); whole cell extracts (10 mM Tris-HCl pH 8.0, 150 mM NaCl, 1 mM EDTA, 1 % Triton X-100) incubated with anti-myc and protein G agarose overnight at 4 °C; blot with Cdo antibody.
Assay [4] deals with GFP-S-tagged Stx4Δ154-194 (linker region deletion) (mouse) (UniProt P70452). Nature of the assay: pull-down; 293T cells co-transfected with Cdo and GFP-S-tagged Stx4 (full length or deletion mutants); cell extracts incubated with anti-S (S-agarose) beads; blot with Cdo or GFP antibodies.
The target of assay [5] is GFP-S-tagged Stx4Δ195-262 (t-SNARE region deletion) (mouse) (UniProt P70452). The assay is described as above.
Assay [6] addresses GFP-S-tagged Stx4, full length (mouse) (UniProt P70452). The assay is described as above.

No constants are given. Whether binding was seen depends on the method and setting. Binding seen in cells or lysates may run through a third protein. Some binding calls cover weakened binding; strength is not graded here. For some assays here: Where a sequence is shown, tags or fusion partners need not be part of it.

As for “Syntaxin 4 (Stx4), endogenous in C2C12 myoblasts (from UniProt P70452 1-298)”, the binding result in assay [1] and in assay [2] was “binds” each time.

B1: Cdo (cell adhesion molecule-related, down-regulated by oncogenes), full length, expressed in 293T cells (receptor, UniProt O35158 25-1256)
chain: DLATYFISEPLSAVQKLGRPVVLHCSAKPVTARISWLHNGKRLDRNTEQIKIHRGTLTILSLNPSLSGCYQCVANNSVGAVVSGPATVSADALADFDSSTMHVITAEKKNTGFIGCRVPESNPKAEVRYKIRGKWLMYSTGNYIILPSGNLQILNVSSKDKGSYKCAAYNPVTSELKVEPAGRKLLVSRPSSDGFHILHPALSQALAVLPHSPVTLECVVSGVPASQVYWLKDGQDCLSGSNWRRLYSHLATASIDPADSGNYSCVVGNNSSGDVKHVTYTVNVLEHASISKGLHDQKVSLGATVRFTCEVHGNPAPNRTWFHNAQPIRPSSRHLTEGSVLKITGVIMEDSGLYQCMADNGIGFMQSTGRLQIEQDSGQRPVIVTAPANVEVTDGDFVTLSCNATGEPVPVIHWYGRHGLITSHPSQVLRSKSRKSHLFRPGDLDPEPVYLIMSQAGSSSLSIQAVTREHAGKYTCEAVNKHGSTQSEAFLTVVPFETNTKAEPVTPSEASQNDERDPRDGSESGLLNLFPVKVHSGGVELPAEKNASVPDAPNILSPPQTHMPDTYTLVWRTGRDGGMPINAYFVKYRKLDDGSGAVGSWHTVRVPGSESELHLTELEPSSLYEVLMVARSAVGEGQPAMLTFRTSKEKMASSKNTQASFPPVGIPKRPVTSEASNSNFGVVLTDSSRHSGVPEAPDRPTISMASETSVYVTWIPRANGGSPITAFKVEYKRMKSSDWLVAAEDIPPSKLSVEVRSLEPGSIYKFRVIVINHYGESFRSSASRPYQVAGFPNRFSNRPITGPHIAYTEAVSDTQIMLKWTYIPSSNNNTPIQGFYIYYRPTDSDNDSDYKRDVVEGSKQWHTIGHLQPETSYDIKMQCFNEGGESEFSNVMICETKVKRVPGASEYPMKELSTPPSSSGNGGNVGPATSPARSSDMLYLIVGCVLGVMVLILLVFIALCLWKSRQQSAIQKYDPPGYLYQGSEINGQMVEYTTLSGTARINGSVHGGFLSKGSLSNGCSHLHHKGPNGVNGILNGTINGGLYSAHTSSLTRTCVEFEHPHHLVNGGAVYTAVPQMDPLECINCRNCRNNNRCFTKTNSPLPVVPVVASYPQDGLEMKPLGVMKFPVCPVSTVPDGGQIPEECLKDSVAPAPTQRTCRQDNTSDINSDSTEDTAEFNRGDSSGHSEAEDKVFSWSPLILSPVLEDCSEKTAWSPPGPPLDGLSVVLQQAQET
B1: the binding entry is given as “binds” in assay [3], “binds” in assay [4], “no binding” in assay [5] and “binds” in assay [6].

B2: CdoΔ1035-1160 (receptor, UniProt O35158)
chain: DLATYFISEPLSAVQKLGRPVVLHCSAKPVTARISWLHNGKRLDRNTEQIKIHRGTLTILSLNPSLSGCYQCVANNSVGAVVSGPATVSADALADFDSSTMHVITAEKKNTGFIGCRVPESNPKAEVRYKIRGKWLMYSTGNYIILPSGNLQILNVSSKDKGSYKCAAYNPVTSELKVEPAGRKLLVSRPSSDGFHILHPALSQALAVLPHSPVTLECVVSGVPASQVYWLKDGQDCLSGSNWRRLYSHLATASIDPADSGNYSCVVGNNSSGDVKHVTYTVNVLEHASISKGLHDQKVSLGATVRFTCEVHGNPAPNRTWFHNAQPIRPSSRHLTEGSVLKITGVIMEDSGLYQCMADNGIGFMQSTGRLQIEQDSGQRPVIVTAPANVEVTDGDFVTLSCNATGEPVPVIHWYGRHGLITSHPSQVLRSKSRKSHLFRPGDLDPEPVYLIMSQAGSSSLSIQAVTREHAGKYTCEAVNKHGSTQSEAFLTVVPFETNTKAEPVTPSEASQNDERDPRDGSESGLLNLFPVKVHSGGVELPAEKNASVPDAPNILSPPQTHMPDTYTLVWRTGRDGGMPINAYFVKYRKLDDGSGAVGSWHTVRVPGSESELHLTELEPSSLYEVLMVARSAVGEGQPAMLTFRTSKEKMASSKNTQASFPPVGIPKRPVTSEASNSNFGVVLTDSSRHSGVPEAPDRPTISMASETSVYVTWIPRANGGSPITAFKVEYKRMKSSDWLVAAEDIPPSKLSVEVRSLEPGSIYKFRVIVINHYGESFRSSASRPYQVAGFPNRFSNRPITGPHIAYTEAVSDTQIMLKWTYIPSSNNNTPIQGFYIYYRPTDSDNDSDYKRDVVEGSKQWHTIGHLQPETSYDIKMQCFNEGGESEFSNVMICETKVKRVPGASEYPMKELSTPPSSSGNGGNVGPATSPARSSDMLYLIVGCVLGVMVLILLVFIALCLWKSRQQSAIQKYDPPGYLYQGSEINGQMVEYTTLSGTARINGSVHGGFLGQIPEECLKDSVAPAPTQRTCRQDNTSDINSDSTEDTAEFNRGDSSGHSEAEDKVFSWSPLILSPVLEDCSEKTAWSPPGPPLDGLSVVLQQAQET
Consider B2, for which the binding result in assay [3] was “no binding”.

B3: CdoΔ986-1048 (receptor, UniProt O35158)
chain: DLATYFISEPLSAVQKLGRPVVLHCSAKPVTARISWLHNGKRLDRNTEQIKIHRGTLTILSLNPSLSGCYQCVANNSVGAVVSGPATVSADALADFDSSTMHVITAEKKNTGFIGCRVPESNPKAEVRYKIRGKWLMYSTGNYIILPSGNLQILNVSSKDKGSYKCAAYNPVTSELKVEPAGRKLLVSRPSSDGFHILHPALSQALAVLPHSPVTLECVVSGVPASQVYWLKDGQDCLSGSNWRRLYSHLATASIDPADSGNYSCVVGNNSSGDVKHVTYTVNVLEHASISKGLHDQKVSLGATVRFTCEVHGNPAPNRTWFHNAQPIRPSSRHLTEGSVLKITGVIMEDSGLYQCMADNGIGFMQSTGRLQIEQDSGQRPVIVTAPANVEVTDGDFVTLSCNATGEPVPVIHWYGRHGLITSHPSQVLRSKSRKSHLFRPGDLDPEPVYLIMSQAGSSSLSIQAVTREHAGKYTCEAVNKHGSTQSEAFLTVVPFETNTKAEPVTPSEASQNDERDPRDGSESGLLNLFPVKVHSGGVELPAEKNASVPDAPNILSPPQTHMPDTYTLVWRTGRDGGMPINAYFVKYRKLDDGSGAVGSWHTVRVPGSESELHLTELEPSSLYEVLMVARSAVGEGQPAMLTFRTSKEKMASSKNTQASFPPVGIPKRPVTSEASNSNFGVVLTDSSRHSGVPEAPDRPTISMASETSVYVTWIPRANGGSPITAFKVEYKRMKSSDWLVAAEDIPPSKLSVEVRSLEPGSIYKFRVIVINHYGESFRSSASRPYQVAGFPNRFSNRPITGPHIAYTEAVSDTQIMLKWTYIPSSNNNTPIQGFYIYYRPTDSDNDSDYKRDVVEGSKQWHTIGHLQPETSYDIKMQCFNEGGESEFSNVMICETKVKRVPGASEYPMKELSTPPSSSGNGGNVGPATSPARSSDMLYLIVGCVLGVMVLILLVFIALCLKGPNGVNGILNGTINGGLYSAHTSSLTRTCVEFEHPHHLVNGGAVYTAVPQMDPLECINCRNCRNNNRCFTKTNSPLPVVPVVASYPQDGLEMKPLGVMKFPVCPVSTVPDGGQIPEECLKDSVAPAPTQRTCRQDNTSDINSDSTEDTAEFNRGDSSGHSEAEDKVFSWSPLILSPVLEDCSEKTAWSPPGPPLDGLSVVLQQAQET
Consider B3, for which the binding result in assay [3] was “no binding”.

Values taken from PMC4561423.
